Values joined by “and” are separate entries in the source; they are usually repeats but may differ in a detail not shown here. Identical values can stand only once. Screen size: about 210,000 compounds; about 5,900 (2.8%) were called active. The shares of active, inactive and inconclusive entries below differ from those in the screen. The call rests on the fitted dose curve; in most records, active means well fitted activation curve with a large enough effect; inconclusive means small, poorly fitted or top-dose-only effect; inactive means no such curve, though single readings can be large or run the other way. Potencies beside an inconclusive call are fits to weak or partial responses and may not hold up.
Test: qHTS Assay for Enhancers of SMN2 Splice Variant Expression; further: nearly all actives have a fitted effect of over 55% in size; on activity change, positive = activation: % of control where 0% means no effect
Details: HEK293 SMN2-luciferase splicing reporter, luminescence, 30-36 h; activity change, positive = activation: at 46.1 µM (top of the series)
In short: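 qHTS luciferase splicing reporter: luminescence rises when SMN2 exon 7 is included in transfected HEK293 cells. Compound exposure lasted 30-36 h at 37C, with 4.5 mM final sodium butyrate as control, followed by a ONE-Glo read.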
Potency means the concentration at half of the fitted maximal effect; tags describe the fitted curve by direction and shape.

Row | SMILES | Potency | activity change, positive = activation
1 | Cc1ccc(S(=O)(=O)N(CC(=O)NCCSc2ccc(Cl)cc2)c2ccccc2C)cc1 | inactive | –
2 | Nc1c(C(=O)Nc2ccc([As](=O)(O)O)cc2)cnc2nnnn12 | – | inactive: -4.43% [at 9.22 µM]
3 | COc1cc(/C=N/NC(=O)CN2CCCCC2)ccc1OCc1ccccc1 | inconclusive: 14.1 µM [activator, single point] | –
4 | COc1ccc(C2=NCc3nnc(C)n3-c3ccc(Cl)cc32)cc1Cl | inconclusive: 2.24 µM [activator, full curve] | –
5 | N#CC1=C(N)Oc2c(c(=O)oc3ccccc23)C1c1cccnc1 (stereo unspecified) | inconclusive: 3.16 µM [activator, single point] | –
6 | CN(C)CC1CSCCC1(O)c1ccccc1 (stereo unspecified) | inconclusive: 0.0316 µM [activator, full curve] | –
7 | CC(=O)C1C2c3ccccc3OC1(C)N=c1s/c(=C/c3cn(C)nc3C)c(=O)n12 (stereo unspecified) | inconclusive: 22.4 µM [activator, single point] | –
8 | O=C(Oc1ccc2c(c1)CCC2)N1CCOCC1 | inconclusive: 28.2 µM [activator, partial curve] | –
9 | CC(=O)[O-].CC(=O)[O-].O.O.[Cd+2] | inactive | –
10 | N[C@H](CCCCCP(=O)(O)O)C(=O)O | inconclusive: 0.112 µM [activator, full curve, poor fit] | –
11 | CC(C)C1(C)N=C(c2nc3ccccc3cc2C(=O)O)NC1=O (stereo unspecified) | inconclusive: 0.0028 µM [activator, full curve, poor fit] | –
12 | Cc1ccc(-c2nc(N3CCOCC3)s[n+]2-c2ccccc2)cc1 | inactive | –
13 | CCC(C)C(=O)OC1C(O)C2C(CN3CC(C)CCC3[C@]2(C)O)C2C[C@]34O[C@@]5(O)C(OC(=O)C(C)(O)CC)CCC3(C)C5C(OC(C)=O)C(OC(C)=O)C4[C@@]21O (stereo partly specified) | inactive | –
14 | O=C(c1cc(Br)ccc1Cl)N1CCC2(CC1)OCCO2 | inconclusive: 7.08 µM [activator, full curve, poor fit] | –
15 | COc1cc(C=C2C(=O)NC(=O)NC2=O)ccc1OCc1ccc([N+](=O)[O-])cc1 | inconclusive: 11.2 µM [activator, partial curve, poor fit] | –
16 | Cc1cc(=O)[nH]c(CCl)n1 | inconclusive: 15.8 µM [activator, partial curve] | –

Row | SMILES | Potency | activity change, positive = activation
17 | O=C(Oc1ccccc1)N1CCC2(CCCN(C(c3ccccc3)c3ccccc3)C2)CC1 | inconclusive: 5.62 µM [activator, single point] | –
18 | CC1CCCN(C(=O)c2ccc(N3CC4CC(C3)c3cccc(=O)n3C4)c([N+](=O)[O-])c2)C1 (stereo unspecified) | inconclusive: 0.01 µM [activator, single point] | –
19 | N#CCCn1cc(C(=O)Nc2ccc([N+](=O)[O-])cc2)c(-c2ccc3c(c2)OCCO3)n1 | inconclusive: 0.0224 µM [activator, full curve, poor fit] | –
20 | C[C@H](c1ccccc1)N1CCN([C@@H](C)c2ccccc2)CC1 | – | inactive: -8.7% [at 9.22 µM]
21 | Oc1ccccc1O | inconclusive: 12.6 µM [activator, full curve, poor fit] | –
22 | O=S(=O)(c1ccc(Cl)cc1)N1CN2CCN(C2)C1 | inconclusive: 0.1 µM [activator, full curve] | –
23 | Cc1nc(Cl)sc1C(=O)Nc1ccc2ccccc2c1 | active: 12.6 µM | –
24 | O=C(Nc1ccncc1)c1cccn(Cc2ccccc2)c1=O | inactive | –
25 | Nc1ccc(Cl)c(Cl)c1 | inactive | –
26 | CC1=NN(c2ccccc2)C(=O)[C@@H]1N=Nc1ccc([As](=O)(O)O)c(O)c1 | – | inactive: 6.52% [at 9.22 µM]
27 | O=C(Nc1ccccc1)C1CC(=O)N(C2CCCCC2)C1 (stereo unspecified) | inconclusive: 12.6 µM [activator, partial curve] | –
28 | Cc1ccc(OCC(=O)NCCN2CCN(C(=O)COc3ccc(C)cc3)CC2)cc1 | inconclusive: 0.0045 µM [activator, full curve, poor fit] | –
29 | CCOC(=O)c1cc2c(cn1)[nH]c1ccccc12 | inconclusive: 28.2 µM [activator, partial curve, poor fit] and inconclusive: 7.08 µM [activator, partial curve, poor fit] | –
30 | O=C(NC1(C(F)(F)F)Oc2ccc(Cl)cc2O1)N1CCC2(CC1)OCCO2 (stereo unspecified) | inconclusive: 11.2 µM [activator, single point] | –
31 | CN1CCN(c2ccc3nc(-c4ccc5nc(-c6ccc(O)cc6)[nH]c5c4)[nH]c3c2)CC1 | inconclusive: 4.47 µM [activator, single point] | –
